According to the supplement of paper PMC11417369:
This is one part of the list.

system: PfHDP1 homeodomain (GST-tagged); assay: gcPBM binding intensity (ln(normalized median fluorescence intensity)); higher = stronger DNA binding
Method in brief: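 DNA-binding domains from P. falciparum, fused to GST and produced in E. coli, were put on an Agilent 4 × 180k double-stranded probe array for 1 h in 1× PBS holding 1% milk, 0.2 mg/ml BSA, 0.5% salmon testes DNA and 0.03% Triton X-100. Probes were primer-extended, 36 bp long and drawn from intergenic genomic regions, with negative controls included. After Alexa488 anti-GST antibody detection and a 488 nm scan, binding intensity was set as the highest Masliner-normalised natural-log median intensity across replicate spots of either probe orientation.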

Sequence | gcPBM binding intensity (ln)
ATATATATATATATATGTACTTATTTATATATTTAT [XGTACX_site7811] | 9.3
TGGTTATTTATCTTTATTATAAATATTTACAAATAA [CACACA_negctrl_site1773] | 6.33
GTATATATTAAAAAAAAAAAAAAAAAATTAAAATTA [CACACA_negctrl_site572] | 5.76
TATAAGAAAAATAACACACACATAAACATATATACA [CACACA_site2785] | 6.95
TAGACTGGACATTAATGTACATAAATATATATGTAT [XGTACX_site7726] | 6.72
AAAAAAAAAATTCATTGTACATATATATATATATAT [XGTACX_site8346] | 9.42
GGAATATTAATAAGAGTGCATTTTGTATTCAATATG | 7.99
TTTATACAATTAGACACACACAAAAAGTATATATAT [CACACA_site1082] | 6.92
CAAATACCCGGACACACACACACAAAAAAAAAAAAA [CACACA_site4441] | 6.55
ATATAATTACATTGATGTACACGAAATGATTAACAT [XGTACX_site5183] | 6.43
ATGGGTATATTTCCACGTACAAAAAATCCGAATTGC [XGTACX_site1490] | 6.43
CATTCAAAGAAAAACTGTACGTGTAGCAAACGTCAT [XGTACX_site2576] | 6.95
TTCTTTTTAAATTACACACACATATATATCTGTATA [CACACA_site5863] | 7.19
TCATTATTAATATGTAGTACATTATATGATATGTAT [XGTACX_site8978] | 6.42
ATGAACATACAATATACACACATATAGATTTATATT [CACACA_site6524] | 6.77
TAAAGGATTTTCGAAGCATGCCACCTGTGACATACT [TGCATGCA_site130] | 5.85
ATATTGTATTATCTTTATGTACCAAAAAAAAAAAAA [CACACA_negctrl_site1036] | 6.26
ATATCAATATAAAGTACACACTATAGTATGTATTAT [CACACA_site5286] | 6.65
ATTATTAATAATTGTGTGCACAAATATTTATATGCT | 10.6
TAGTTAATATGAAAAAGTACACGTTTCAGTGAAAGT [XGTACX_site7402] | 6.53
ATATATACATATGGGTGTACATATGCACATATATAT [XGTACX_site8437] | 9.03
TTTAAAATAAATATTACACACAAAATATTAAAAAGC [CACACA_site2129] | 6.76
AAAAAAAAAAAAACTTGTACATGTGATATTATCTAT [XGTACX_site6169] | 6.38

Sequence | gcPBM binding intensity (ln)
ATTTAATACATACATTCACACACACTAATTGTATAT [CACACA_site9361] | 6.98
TCAAAGTAGGCTTATATGCACACTTTGAAATATTAT [CACACA_site1920] | 9.35
TTAAATGTTCTATATACATGCAATGATATGTTTCTG [TGCATGCA_site317] | 6.04
AAATTAATATAAATATGTACATAAATAATAAAATAT [XGTACX_site6131] | 6.63
GTTTTCCTTCCCTTTCCCCCTCAAAAAAAGGGAACA [TGCATGCA_negctrl_site436] | 7.36
AAGGAATAAAGAAGTTGTACATAATTTGTATCATCC [XGTACX_site3891] | 6.63
ATTTTTCAAACTTTAGTGCAATGAAAGAAAGAAAAA | 8.93
GGAGGTTGTTATAAAAGTACAAAAAGTTGCAATTTT [XGTACX_site7351] | 10.7
TAAAATTTTTTATTCACACAAATATAGTTATATATA [CACACA_site5348] | 6.13
ATAAGAAGGAACATAAATATATCATAAAAAAAAAAA [GTGCAC_negctrl_site169] | 6.39
ATAACACAAAAAGGGGGTACAATAAAAAAAAAAAAA [XGTACX_site1652] | 6.97
TATTTATATAGGTATACACACATACAAATATGTAAA [CACACA_site7705] | 6.45
AATACCTATAATACAACACACAAGTAATATAAACCT [CACACA_site7661] | 6.81
TCATTATATACAATATGTACATATATGTAATAAACA [XGTACX_site4611] | 6.77
AAAGAATTCATTATTTGTACTTAAATAAATAAATAA [XGTACX_site5932] | 6.23
AGAAAGAAAGAATACACACACACATATATATATATC [CACACA_site3744] | 6.95
AGCACACGCAGACACACACACACACGCACACGCACA [CACACA_site6306] | 7.07
AAAGGATATGCTTCATATATATATTGTTATATATGT [CACACA_negctrl_site1672] | 6.21
TAGATAAAATGAACATGTACTCATCTTAATATATAT [XGTACX_site34] | 6.23
CAATATGGAAAATAAAGTACGCACACAAAAATTCTC [XGTACX_site4793] | 7.29
TACACCCACATATATATACACACTTTTATTTAAATA [CACACA_site1596] | 7.08
AAAAAAAATAATGTTGCACACAACAACAAACAAAAA [CACACA_site3290] | 9.19
AATATATATATATGTGCACACATATATAATATGTAT [CACACA_site716] | 9.79

Sequence | gcPBM binding intensity (ln)
ATACTATAATATAAAACACACATATGTACCTTCTAA [CACACA_site7323] | 6.67
ATTATTTAAATTTAACGTACGGAATAAGACATAGAT [XGTACX_site8622] | 7.71
TAGTAACTTGTATTCACACAAATTATATTATATTAC [CACACA_site5041] | 6.56
TATATAATATATAAATGTACTTTTGTCTTATATGAA [XGTACX_site7211] | 6.32
TTTTTTTTTTTTTTTTTTTTACAGAAAAATATTAAA [CACACA_negctrl_site128] | 5.99
AATCATTAAAGCATAATGTTTATGATCAATATGAAA [CACACA_negctrl_site887] | 6.26
TTCAGGTAATAACATTGTACATGTGTATCATAATTA [XGTACX_site6740] | 6.62
TTATTCTAAAAATATACACACAACAACAAACAAACA [CACACA_site1543] | 7.31
ATGTGTTTCTTCAATTGTACTAAAAGGTATATATTG [XGTACX_site4608] | 6.68
ACAAACAAATAAATATGTACGAATAAATAAAATTTT [XGTACX_site4664] | 6.32
CTTTTAGAATAATCAGTGCAAAAAAAAAAAAAAAAA | 9.04
TTTTTTTTCAAAAATACAAAAAAAAAAGAAAAAAAC [CACACA_negctrl_site625] | 6.2
GAAATATTACAAAGTACATGCAACGAAAATTTCAGT [TGCATGCA_site608] | 6.99
GATAATACATAAATTTATAAGTGGAAGAATAAATAA [CACACA_negctrl_site698] | 6.84
TAATTTTTTTAAGAGAGTACATGACTCAACAGTTTA [XGTACX_site3103] | 5.98
TTTCATAAATAATAAAATAAAATATGAAGCAAAAGG [CACACA_negctrl_site1767] | 6.75
TTATATCCAACTTGAAAAAAGGTATATGTTTATATA [CACACA_negctrl_site1746] | 6.11
TTTTTTTTTTTTTGGAGTACATGTTTATAACATAAT [XGTACX_site1799] | 6.46
TGCTCTAATTTATATACACACAAATATGTACACATA [CACACA_site7845] | 7.09
TATTTTTGTATATATTTATTCTTATTTTACAGGAAA [TGCATGCA_negctrl_site472] | 6.22
AACAAAAATAGAAACACACATACATTGGTTTTCTTT [CACACA_site2534] | 6.13
ACATTTAAGTTTAGCTGTACATATTCATCATAATTA [XGTACX_site37] | 6.49
TATTCCTTCTACAATTAAATAATTATAATAAATATA [GTGCAC_negctrl_site26] | 6.51

Sequence | gcPBM binding intensity (ln)
GTATCATTAAATTATTGTACATATATATATATATAT [XGTACX_site8809] | 9.36
ATAAATCAAAGGCACACACACAAAAAAAAAAAAAAA [CACACA_site160] | 6.34
TGTTTTTTATATTACTGTACATGTTTTGGAATAATA [XGTACX_site4716] | 6.96
ATATCACATTCCACGGTACACACTAAAAGAAAAATC [CACACA_site3611] | 6.75
GCGGGTTTATCTTTCGCACACCTTACATTTTAGAAT [CACACA_site2015] | 6.92
AGTTTTATGTAGTGTTGTACTTTATACAAATATATT [XGTACX_site614] | 7.25
TATTGTTTTGATTGATGTACATGTTTAAAATATATA [XGTACX_site8430] | 6.65
TAATCTATTTATATGTGTACCTATTTAGAAATGACA [XGTACX_site5709] | 6.3
AAAGTAAATTTAAGCACACACAACGAACTTTTATAC [CACACA_site7008] | 6.82
AAGAAAAAATATAATAATAATAAAATATATATAATA [TGCATGCA_negctrl_site475] | 6.19
TTTGTTTTTCATAGTGCACACATAACCAAAAATAGT [CACACA_site9030] | 9.81
TTAATTAATAGACACACACACATATAAATATAGATT [CACACA_site7143] | 6.59
AAAAAAAAATAATATTGTACACACATAAATTCTTTG [XGTACX_site4315] | 6.09
GTTTTATTAAAAATGTGTACTTAATTATGAAAAAAA [XGTACX_site4689] | 6.26
GTGTATTTTCTGCGCACACACATGCAAAAAGAAATA [CACACA_site1148] | 8.17
TGTTGTAAATATGTTTGTACATAAATATATTATTTA [XGTACX_site5442] | 6.25
TATATTTACATTGTAACACACATGAAATATATATAT [CACACA_site61] | 7.55
TTTTTTATTGTGATACGTATATTATTTTTTGATAAA [CACACA_negctrl_site1] | 6.79
CATACTGTGATAGCACCACACACGCAAAAGAGGGTA [CACACA_site8285] | 6.72
TAAGGCCCTTTTCATCGTACAGTAAAATATAAATAA [XGTACX_site1278] | 6.52
